Source: the supplement of paper PMC4604168 (melanoma cell lines)
The list shows a part of the results. Repeats are few or missing, and single values can be far off.

Tests used:
Test in all cases: cell count relative to DMSO control; melanoma cells; higher = more viable cells
Conditions in all cases: library dose: standard library concentration; 72 h
[1] = test system: G361
[2] = test system: IPC-298
[3] = test system: IST-MEL1
[4] = test system: LB2518-MEL
[5] = test system: LOXIMVI
[6] = test system: MEL-HO
[7] = test system: MZ2-MEL
[8] = test system: MeWo
[9] = test system: RPMI7951
[10] = test system: RVH-421
[11] = test system: SkMel28
[12] = test system: SkMel2
[13] = test system: SkMel30
[14] = test system: SkMel5
[15] = test system: UACC257
[16] = test system: UACC62
[17] = test system: WM115
[18] = test system: WM1716
[19] = test system: WM1745
[20] = test system: WM3526
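Further: cells treated in 1,536-well plates, then fixed and DAPI-stained, with nuclei counted from automated high-throughput microscope images.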

| SMILES | cell count [1] [%] | cell count [2] [%] | cell count [3] [%] | cell count [4] [%] | cell count [5] [%] | cell count [6] [%] | cell count [7] [%] | cell count [8] [%] | cell count [9] [%] | cell count [10] [%] | cell count [11] [%] | cell count [12] [%] | cell count [13] [%] | cell count [14] [%] | cell count [15] [%] | cell count [16] [%] | cell count [17] [%] | cell count [18] [%] | cell count [19] [%] | cell count [20] [%] |
| --- | --- | --- | --- | --- | --- | --- | --- | --- | --- | --- | --- | --- | --- | --- | --- | --- | --- | --- | --- | --- |
| CC1(C)NC(=O)N(c2ccc([N+](=O)[O-])c(C(F)(F)F)c2)C1=O [nilutamide] + OCCn1cc(-c2cnc3nnn(Cc4ccc5ncccc5c4)c3n2)cn1 [PF04217903] (first compound 5 µM, partner dose 5 µM) | 83.9 | 92.6 | 90.9 | 78.1 | 100 | 97 | 96.8 | 83.3 | 66.5 | 116 | 78.5 | 90.5 | 92.3 | 90.1 | 102 | 71.7 | 93 | 87.5 | 67 | 80.7 |
| COc1cc(Nc2ncc(F)c(Nc3ccc4c(n3)NC(=O)C(C)(C)O4)n2)cc(OC)c1OC [Tamatinib] + O=c1cc(-c2cccc3c2Sc2ccccc2S3)oc(N2CCOCC2)c1 [KU55933] (first compound 2 µM, partner dose 5 µM) | 59.4 | 83.8 | 76.6 | 72.8 | 45.6 | 71.6 | 71.5 | 77.3 | 31.6 | 98.9 | 70.7 | 81.2 | 76.8 | 63.4 | 101 | 85.7 | 77.2 | 70.8 | 33.7 | 74.7 |
| O=c1[nH]nc(Sc2ncc([N+](=O)[O-])s2)n1-c1ccc2c(c1)OCCO2 + CN(c1ncccc1CNc1nc(Nc2ccc3c(c2)CC(=O)N3)ncc1C(F)(F)F)S(C)(=O)=O [PF562271] (first compound 1 µM, partner dose 0.4 µM) | 80.7 | 97.9 | 84.2 | 93 | 112 | 88.4 | 75.9 | 114 | 49.4 | 80.3 | 79 | 74.4 | 106 | 69.2 | 68.8 | 80.1 | 92.6 | 76.5 | 63.4 | 97.3 |
| Cn1cncc1[C@@](N)(c1ccc(Cl)cc1)c1ccc2c(c1)c(-c1cccc(Cl)c1)cc(=O)n2C [tipifarnib] + Cn1cc(/C=C2\C(=O)Nc3cccnc32)c2ccccc21 [GW441756] (first compound 0.05 µM, partner dose 2 µM) | 78.8 | 89.5 | 99 | 77.1 | 120 | 93.7 | 90.7 | 95.7 | 76.5 | 84.2 | 62.3 | 93.1 | 106 | 73.7 | 80.8 | 49.6 | 95 | 71.3 | 70.9 | 77.4 |
| C[C@@H]1CCN(C(=O)CC#N)C[C@@H]1N(C)c1ncnc2[nH]ccc12 + CCc1ccc(CCOc2ccc(CC3SC(=O)NC3=O)cc2)nc1 [pioglitazone] (first compound 5 µM, partner dose 10 µM) | 93 | 92.9 | 101 | 97.9 | 203 | 97.4 | 105 | 83.1 | 133 | 127 | 82.6 | 84.5 | 114 | 82.6 | 92.9 | 105 | 75.7 | 93.9 | 97.4 | 95.5 |
| Cn1cncc1[C@@](N)(c1ccc(Cl)cc1)c1ccc2c(c1)c(-c1cccc(Cl)c1)cc(=O)n2C [tipifarnib] + CN(C)S(=O)(=O)c1ccc2c(c1)/C(=C/c1cc3c([nH]1)CCCC3)C(=O)N2 [SU6656] (first compound 0.05 µM, partner dose 2 µM) | 57.1 | 56.7 | 54.6 | 51.7 | 90.5 | 87.7 | 71.8 | 75.2 | 54.9 | 71.3 | 41 | 71.6 | 79.3 | 59.8 | 79.1 | 67.3 | 46.2 | 43.2 | 62.1 | 61.5 |
| O=c1[nH]nc(Sc2ncc([N+](=O)[O-])s2)n1-c1ccc2c(c1)OCCO2 + Cn1cnc2c(F)c(Nc3ccc(Br)cc3Cl)c(C(=O)NOCCO)cc21 [selumetinib] (first compound 1 µM, partner dose 0.075 µM) | 63 | 50.4 | 87.1 | 41.4 | 109 | 75.8 | 54.2 | 72.3 | 96.8 | 60.5 | 51.1 | 38.7 | 49.1 | 64.9 | 102 | 56.9 | 64 | 85.6 | 90.4 | 54.4 |
| Cn1cncc1[C@@](N)(c1ccc(Cl)cc1)c1ccc2c(c1)c(-c1cccc(Cl)c1)cc(=O)n2C [tipifarnib] + Oc1cc(-c2nc(-c3ccccc3)[nH]c2-c2ccncc2)ccc1Cl [L779450] (first compound 0.05 µM, partner dose 1 µM) | 51.4 | 68.2 | 90.1 | 52.8 | 97.6 | 84.3 | 89.1 | 89 | 92.4 | 87.7 | 41.8 | 24.7 | 83 | 51 | 101 | 64.1 | 48.9 | 66.7 | 55.7 | 52.8 |
